Source: PubChem BioAssay (NCI)
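Compound exposure: 48 hours, 5 concentrations, 96-well plates. GI50 is the concentration that inhibits growth by half. At the TGI there is no net growth.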

Tested on: NCI-H322M lung
Experiment: NCI tumour cell line growth inhibition, 48 h

| Structure (SMILES) | GI50 [µM] | TGI [µM] |
| --- | --- | --- |
| Cc1csc2[n+]1-c1ccccc1N(C(=O)Nc1ccccc1)C(C)C2 (stereo not given) | 64.7 | > 100 |
| Nc1ncn2c(n1)nc1ccccc12 |  | > 100 |
| C=C(C)COC1CCCCO1 (stereo not given) |  | > 100 |
| CC(=O)c1c2c(cc3c1CC1(C3)Cc3cc4c(c(C(C)=O)c3C1)CCC4)CCC2 |  | > 100 |
| Cc1cc(S(=O)(=O)Nc2nnc3cnc4ccccc4n23)c(S)cc1Cl |  | > 100 |
| O=S(=O)(O)c1cc(O)c(N=Nc2ccc(O)cc2O)c2ccccc12 |  | > 100 |
| CCC(C)[C@H](NC(=O)Nc1cc(C(F)(F)F)cc(C(F)(F)F)c1)C(=O)N[C@@H](Cc1cn(C)cn1)C(=O)OC (stereo not given in full) | 1.31 | 1.97 |
| Cc1cccc(C)c1NC(=O)C1=NC(=S)NC(c2ccccc2)C1c1nc2ccccc2s1 (stereo not given) |  | > 100 |
| CC(C)(C)C1CCC2c3c([nH]c4ccccc34)C3C(=O)N(c4ccc(Cl)cc4)C(=O)C3C2C1 (stereo not given) |  | > 10 |
| C=C1CC(Cn2ccc(=O)[nH]c2=O)(c2ccc(Cl)cc2)OC1=O (stereo not given) |  | 30.9 |
| CC(=O)NC(C)(C)C1CCC(C)=C(c2ccccc2)C1 (stereo not given) |  | > 100 |
| c1csc(-c2ccsc2-c2cccs2)c1 |  | > 100 |
| CN(c1ccc(C(=O)c2ccc(N(C)S(C)(=O)=O)cc2)cc1)S(C)(=O)=O |  | > 100 |
| CCOC(=O)c1nc2ccc(C(F)(F)F)cc2nc1Nc1ccc(Cl)c(Cl)c1 |  | > 100 |
| O=C(c1ccccc1)C1S(=O)(=O)OCCOS1(=O)=O |  | > 100 |
| CCCCCCCCCCCCCCCCOP(=O)(O)OCC(N)C(=O)O (stereo not given) |  | 66.8 |
| CN(C)CCNC(=O)c1cccc2cc3c(Cl)cccc3nc12 |  | 7.27 |
| COC(=O)c1c(C#N)c(N)nc2c1CCC2 |  | > 100 |
| COc1ncc(Nc2ncc([C@@H](C)N3CCN(S(C)(=O)=O)CC3)cc2-c2nc(C)nc(N)n2)cc1F | 0.0633 | 3.03 |
| Cc1csc2c1-n1cccc1C2=O |  | > 100 |
| CC(C)(C)c1ccc(Oc2ccc(N)cn2)cc1 | > 100 | > 100 |
| O=S(=O)(NNc1ccccc1)c1ccccc1 |  | > 100 |
| O=C(CCC=C(S(=O)(=O)c1ccccc1)S(=O)(=O)c1ccccc1)c1ccccc1 |  | 25.6 |
| O=C([CH-]C(=O)c1ccccc1)c1ccccc1.[CH-]1CCCCC1.[CH-]1CCCCC1.[CH-]1CCCCC1.[Sn+4] | 12.5 | 28.4 |
| CC1CC/C(=C\c2ccc(F)cc2)C(=O)/C1=C/c1ccc(F)cc1 (stereo not given) |  | 20.4 |

| Structure (SMILES) | GI50 [µM] | TGI [µM] |
| --- | --- | --- |
| CCOC(=O)C(=O)CC1=Nc2ccccc2SC(c2cccc(C)c2)C1 (stereo not given) |  | 51.9 |
| O=C1CC(c2cccc(F)c2)Nc2cc3c(cc21)OCO3 (stereo not given) | < 0.01 | > 100 |
| CC(C)(C)OC(=O)CN1CCNCCN(CC(=O)OC(C)(C)C)CCNCC1 |  | > 100 |
| Cc1ccc(C(=O)Nc2ccc(CP(=O)(O)O)cc2CP(=O)(O)O)cc1NC(=O)Nc1cc(C(=O)Nc2ccc(CP(=O)(O)O)cc2CP(=O)(O)O)ccc1C |  | > 100 |
| O=C(Nc1ccccc1)Nc1ccc2cc3ccc(NC(=O)Nc4ccccc4)cc3nc2c1 | 1.72 | 3.7 |
| COC(=O)N/N=C(\C)c1c(O)cc(C)oc1=O |  | > 100 |
| COc1ccc2c(c1)[nH]c(=O)c1c3cccc(F)c3cn21 | 5.79 | > 100 |
| CC1=C(SCCC(=O)OC(C[Se]C2=C(C)C(=O)c3ccccc3C2=O)C(=O)NCCCCCC(=O)OCc2ccccc2)C(=O)c2ccccc2C1=O (stereo not given) | 3.78 | 17.3 |
| COc1ccc(-c2nc(-c3ccc(C)cc3)cn3ccnc23)cc1 | 33.4 | > 50 |
| Cc1c(N=Nc2ccccc2)c(C)n(C2OC(CO)C(O)C(O)C2O)c(=S)c1C#N (stereo not given) |  | > 100 |
| NC1=NS(=O)(=O)Nc2nc(-c3ccccc3)[nH]c21 |  | > 100 |
| CCN(CC)CCCNc1cc(OC)cc2nc3cc(Cl)ccc3nc12 | 2.33 | 9.81 |
| COc1ccc(C/C(=C(\C)c2ccc(OCCN3CCCC3)cc2)c2ccc(OCCN3CCCC3)cc2)cc1 | 2.02 | 4.96 |
| COc1cc2c3c(n(C)c(=O)c2cc1OC)-c1cc2c(cc1/C3=C\CCCI)OCO2 |  | > 100 |
| NC(=O)c1cc([N+](=O)[O-])c(Cl)c([N+](=O)[O-])c1Cl | 6.05 | 19.7 |
| CCc1cccc(C)c1NC(=O)C(=O)CC(=O)c1ccc(Cl)s1 |  | > 100 |
| O=C(N/N=C\c1ccc(N(CCCl)CCCl)cc1[N+](=O)[O-])c1cccnc1 | > 100 | > 100 |
| CC(=O)[O-].Cn1ccnc1CNCc1nccn1C.[Cu+2].[O-][Cl+3]([O-])([O-])[O-] | > 100 | > 100 |
| O=c1[nH]cc(Cl)c(=O)[nH]1 |  | > 100 |
| CSc1ccn(C2CC(F)C(CO)O2)c(=O)n1 (stereo not given) |  | > 100 |
| Cn1ncc2c(Cl)ncnc21 |  | > 100 |
| CC1=C(/C=C/C(C)=C/C2CC(N(C)C)=CC(=O)O2)C(C)(C)CCC1 (stereo not given) |  | 32.1 |
| OC(COC(c1ccccc1)(c1ccccc1)c1ccccc1)C(O)CC1SCCS1 (stereo not given) |  | 54.4 |
| O=C1CC[C@@]2(O)[C@H]3Cc4ccc(-c5ccccc5)c5c4[C@@]2(CCN3CC2CC2)[C@H]1O5 |  | 67.3 |
| CC1CC[P+](c2ccccc2)(c2ccccc2)c2c1ccc1ccccc21 (stereo not given) | 15.3 | 75.3 |

| Structure (SMILES) | GI50 [µM] | TGI [µM] |
| --- | --- | --- |
| c1ccc2c3c([nH]c2c1)[C@H]1C2CCCCN2CN1CC3 (stereo not given in full) |  | > 100 |
| CCOC(=O)C(Cc1ccc(OC(=O)OC(C)(C)C)cc1)NC(=O)OC(C)(C)C (stereo not given) |  | > 100 |
| COC(=O)[C@H](Cc1cnc[nH]1)NC(=O)[C@@H](NC(=O)Nc1cc(C(F)(F)F)cc(C(F)(F)F)c1)C(C)C | 17 | 31.9 |
| NC(CCOCCP(=O)(O)O)C(=O)O (stereo not given) |  | > 100 |
| CCOP(=O)(OCC)C1CCCOC1=O (stereo not given) |  | > 100 |
| CCOC(=O)/C(=C/c1ccc(C(=O)OC)cc1)N(CC)CC |  | > 100 |
| Cc1cc(=O)n2nc(CCl)sc2n1 |  | 31.2 |
| CCOC(=O)NC(OC)(C(F)(F)F)C(F)(F)F |  | > 100 |
| COC(=O)c1ccc(C)cc1CC1Cc2ccc(C)cc2C1=O (stereo not given) |  | 95.7 |
| COc1cc(/C=C/C(=O)/C=C/c2ccc(-n3ccnc3C)cc2)ccc1O | 8.8 | > 100 |
| COc1cccc(CC(C)=C(c2ccc(OCCN3CCCCC3)cc2)c2ccc(OCCN3CCCCC3)cc2)c1 | 1.88 | 3.73 |
| Cc1ccc(S(=O)(=O)SC(C)(C)C)cc1 |  | > 100 |
| CC1C(C)N(C(=O)CCl)c2ccccc2N1C(=O)CCl (stereo not given) | 1.68 | 3.57 |
| CC(=O)Nc1ccc2[nH]c(C(=O)N3CC(CCl)c4c3cc([N+](=O)[O-])c3ccccc43)cc2c1 (stereo not given) |  | > 89.4 |
| O=C1C(Cl)=C(N(C(=O)c2ccccc2)C(=O)c2ccccc2)C(=O)c2ccccc21 |  | > 100 |
| CCN(Cc1ccccc1)C1CCN(Cc2cc(Br)ccc2O)CC1 | > 100 | > 100 |
| CC(=O)Oc1c(N2CCCCC2)c(C(=O)c2ccccc2)c(O)c2ccn(N(C)C)c12 |  | 26.6 |
| CCCCCCCCCCCCCC[N+](C)(C)CCCCCCCCCCCCCC | 12.6 | 75.6 |
| COc1ccc(CN2c3ccccc3Sc3ccccc32)c(C(F)(F)F)c1 | 12.5 | > 100 |
| CCCCCCCCCCCCCCCCCCn1cc[n+](C)c1 | 1.39 | 2.91 |
| CN(C)c1ccc(/C=C(\NC(=O)c2ccccc2)C2=NC(CCC(=O)O)C(=O)O2)cc1 (stereo not given) |  | > 50 |
| O=C(Nc1cccc(O)c1)c1ccc(NC2=C(Cl)C(=O)N(Cc3ccc(Cl)cc3Cl)C2=O)cc1 | 5.12 | 15.8 |
| COc1ccc2c3c([nH]c2c1[N+](=O)[O-])C(C)N(Cc1ccccc1)CC3 (stereo not given) |  | > 100 |
| CC(=O)Nc1c(Nc2ccccc2)[nH]c(C)nc1=S |  | > 100 |
| Cc1oc2c(c1C)S(=O)(=O)C(C#N)=C(N(C)C)N2 |  | > 100 |

| Structure (SMILES) | GI50 [µM] | TGI [µM] |
| --- | --- | --- |
| COc1cc2c(c(O)c1OC)CC1CCC(=O)N1C2c1cccc2ccccc12 (stereo not given) |  | > 100 |
| C=C1C(=O)O[C@@H]2[C@H](O)[C@@H](C)[C@@H]3C=CC(=O)[C@@]3(C)[C@@H](OC(=O)/C(C)=C/C)[C@H]12 |  | 7.1 |
| COCc1c(-c2cc3cc(C)cc(OC)c3s2)c2c(N)ncnn2c1CN1CCNC(=O)C1 | 2.97 | 22.4 |
| COC(=O)C1=C(O)[C@H](C(=O)OC)C2(O)C(C(=O)OC)[C@H](c3ccc(OC(=O)C(C)c4ccc(CC(C)C)cc4)cc3)C[C@@H]1[C@@H]2C(=O)OC (stereo not given in full) | 22.6 | > 50 |
| O=C1N2Cc3c4ccc5c3CN3C(=O)N6Cc7c(ccc(c7CN1C6(c1ccccc1)C23c1ccccc1)OCCOCCNCCOCCO4)OCCOCCNCCOCCO5 (stereo not given) |  | > 100 |
| Cc1cccc(N2C(=O)C3c4[nH]c5ccccc5c4C4CCC(C(C)(C)C)CC4C3C2=O)c1 (stereo not given) |  | 26.5 |
| O=c1ccn(C2OC(CO)C(O)C2F)c(=O)n1Cc1ccccc1 (stereo not given) |  | > 100 |
| COc1ccc2c(c1)c(-c1nc(-c3c[nH]c4ccncc34)cs1)cn2C | 1.69 | 3.08 |
| Cc1ccc(-c2nc(N/N=C/c3ccc(O)cc3)c3ccccc3n2)cc1 |  | > 100 |
| ClC/C=C/COC1CCCCO1 (stereo not given) |  | > 100 |
| NC(CSSCC(N)=NCC12CC3CC(CC(C3)C1)C2)=NCC12CC3CC(CC(C3)C1)C2 |  | 28.6 |
| Nc1ccc(C2=CC(c3ccc(Cl)cc3)N3C=CSC3=N2)cc1 (stereo not given) | 17.4 | 89.3 |
| Cc1cccc2nc3ccccc3c(Nc3ccc(NS(C)(=O)=O)cc3)c12 | 15.4 | 46.9 |
| O=C(NC(=O)c1cc(-c2ccccc2)n[nH]1)c1ccccc1 |  | > 100 |
| O=C(/C=C\c1ccc([N+](=O)[O-])cc1)c1ccccc(=O)c1O |  | 8.31 |
| N/C(=N\N=C\c1ccc(C(F)(F)F)cc1)NO |  | > 100 |
| CCOC(=O)c1cc2c(cc1Cl)SC(=Nc1ccccc1)N(S(=O)(=O)c1ccc(Cl)cc1)S2(=O)=O | 24.7 | 41 |
| C=CCN(CCNS(=O)(=O)c1ccc(C)cc1)S(=O)(=O)c1ccc(C)cc1 |  | > 100 |
| Cc1cccc(C2SCc3nc4ccccc4n32)c1 (stereo not given) |  | > 100 |
| NCCCC[C@@H]1NC(=O)[C@H](CC(=O)O)NC(=O)CNC(=O)[C@H](CCCN=C(N)N)NC(=O)[C@@H](N)CSSC[C@@H](C(=O)O)NC(=O)[C@H](CC(=O)O)NC(=O)[C@@H]2CCCN2C(=O)CNC1=O | > 100 | > 100 |
| COC1=CC2(CC(OC)=C1OC)OC21COc2ccccc2C1=O (stereo not given) |  | > 100 |
| S=c1[nH]n2c(CCCCCCCCc3nnc4sc(=S)[nH]n34)nnc2s1 |  | > 100 |
| Cc1cc(S(=O)(=O)Nc2nc3ccccc3nc2-c2ccc(Cl)cc2)c(S)cc1Cl |  | 32.3 |
